Assay results: the antibiotic and cytotoxicity screens of Wong et al. (2023)
The other results are listed elsewhere or left out.

These compounds were tested on S. aureus RN4220 (assay: growth inhibition call (relative growth <= 0.2)). Conditions: 50 µM.

Growth inhibition call, inactive:
C[C@H]1CN([C@@H](C)CO)C(=O)c2cc(NC(=O)Nc3ccc(C(F)(F)F)cc3)ccc2O[C@H]1CN(C)C(=O)Nc1ccc2c(c1)OCO2
CCS(=O)(=O)N(C)C[C@@H]1OCc2ccccc2-c2c(n(C)c3ccccc23)C(=O)N([C@H](C)CO)C[C@@H]1C
C[C@@H]1CN([C@@H](C)CO)C(=O)c2cc(NC(=O)Nc3ccc(C(F)(F)F)cc3)ccc2O[C@@H](C)CCCCO[C@H]1CN(C)S(=O)(=O)c1cccs1
Cc1noc(C)c1NC(=O)N(C)C[C@H]1Oc2ccc(NC(=O)CCN3CCOCC3)cc2C(=O)N([C@H](C)CO)C[C@@H]1C
C[C@H](CO)N1C[C@H](C)[C@@H](CN(C)CC2CCCCC2)OCCCC[C@H](C)Oc2ccc(NC(=O)Nc3ccc(C(F)(F)F)cc3)cc2C1=O
O=C(O)CCC(=O)NCc1cccnc1
CN1C(C(=O)Nc2ccccn2)=C(O)c2ccccc2S1(=O)=O
C[C@@H]1CN([C@@H](C)CO)C(=O)Cc2cc(NC(=O)Nc3ccc(C(F)(F)F)cc3)ccc2O[C@@H]1CN(C)Cc1ccc2c(c1)OCO2
O=C(O)c1ccc2c(c1)OCO2
O=C(C[C@@H]1CC=CCCC(=O)OC[C@@H](Cc2c[nH]c3ccccc23)NC1=O)N[C@H](CO)Cc1ccccc1
O=C1OCCC/C=C\[C@H]2O[C@@]34C=CCN(c5ccc6ccccc6c5)C(=O)[C@H]3N(CCCO)C(=O)[C@@H]4[C@@H]12
Cc1noc(C)c1S(=O)(=O)N(C)C[C@H]1Oc2ccc(NC(=O)NC3CCCCC3)cc2CC(=O)N([C@H](C)CO)C[C@H]1C
O=C(C[C@H]1CC[C@H]2[C@@H](COC[C@@H](O)CN2C(=O)c2ccncc2)O1)NC1CCC1
C[C@H]1CCCCO[C@@H](CN(C)C(=O)Nc2ccccc2)[C@@H](C)CN([C@@H](C)CO)C(=O)c2cc(NC(=O)Nc3cccc4ccccc34)ccc2O1
O=C(C[C@H]1CC[C@H]2[C@@H](COC[C@H](O)CN2C(=O)Nc2ccc3c(c2)OCO3)O1)N1CCN(c2ccccc2)CC1
C/C(=N\N)c1ccc2ccccc2c1
COc1ccc(NC(=O)N(C)C[C@H]2OCCCC[C@H](C)Oc3ccc(NS(=O)(=O)c4ccc(C)cc4)cc3C(=O)N([C@@H](C)CO)C[C@@H]2C)cc1
Cc1ccc(S(=O)(=O)Nc2cccc3c2O[C@@H](CN(C)S(=O)(=O)c2cn(C)cn2)[C@H](C)CN([C@H](C)CO)C3=O)cc1
O=C(C[C@@H]1C[C@H]2c3cc(NC(=O)NC4CCCC4)ccc3O[C@H]2[C@H](CO)O1)NCc1ccc(Oc2ccccc2)cc1
CO[C@H]1CN(C)C(=O)c2cc(NS(C)(=O)=O)ccc2OC[C@@H](C)N(C(=O)C2CCOCC2)C[C@@H]1C
COc1ccc(CN(C)C[C@H]2OCCCC[C@H](C)Oc3ccc(NS(=O)(=O)c4ccccc4)cc3C(=O)N([C@@H](C)CO)C[C@H]2C)cc1
C[C@@H]1CN([C@H](C)CO)C(=O)c2cc(NC(=O)C3CCCCC3)ccc2O[C@@H](C)CCCCO[C@H]1CN(C)C(=O)Nc1ccccc1
NCC[C@H]1CC[C@H](NC(=O)c2ccccc2F)[C@H](CO)O1
CC12CCC(=O)C=C1C=CC1C2CCC2(C)C1CCC21CCC(=O)O1 (stereo not given)
COc1cc2c(cc1O)[C@H](c1ccc(CN3CCCC3)cc1)N(Cc1sc3ccccc3c1Cl)CC2
C[C@@H]1CCCCO[C@H](CN(C)Cc2ccc(Cl)c(Cl)c2)[C@@H](C)CN([C@H](C)CO)C(=O)c2cc(NC(=O)c3ccncc3)ccc2O1
CCCNC(=O)N1C[C@H](C)[C@@H](OC)CN(C)C(=O)c2cc(NS(=O)(=O)CC(F)(F)F)ccc2OC[C@H]1C
COCC(=O)N(C)C[C@H]1Oc2cc(C#Cc3cccnc3)ccc2S(=O)(=O)N([C@@H](C)CO)C[C@H]1C
C[C@H]1CN([C@@H](C)CO)C(=O)c2cccc(NC(=O)c3cnccn3)c2O[C@H]1CN(C)Cc1ccc2c(c1)OCO2
C[C@@H]1CCCCO[C@H](CN(C)S(=O)(=O)c2cccs2)[C@@H](C)CN([C@H](C)CO)C(=O)c2cc(NS(=O)(=O)c3ccc(Cl)cc3)ccc2O1
C[C@H](CO)N1C[C@H](C)[C@@H](CN(C)Cc2ccc(C(=O)Nc3ccccc3N)cc2)Oc2ccc(NS(C)(=O)=O)cc2C1=O
COc1ccc(NC(=O)Nc2ccc3c(c2)C(=O)N([C@@H](C)CO)C[C@H](C)[C@@H](CN(C)Cc2ccncc2)OCCCC[C@@H](C)O3)cc1
C[C@@H]1CCCCO[C@@H](CN(C)Cc2ccc(Cl)c(Cl)c2)[C@H](C)CN([C@@H](C)CO)C(=O)c2cc(NC(=O)c3ccccc3)ccc2O1
C[C@@H]1CN([C@H](C)CO)C(=O)c2cc(NS(=O)(=O)c3cn(C)cn3)ccc2O[C@@H]1CN(C)S(=O)(=O)c1ccccc1
C[C@@H]1CN([C@H](C)CO)C(=O)Cc2cc(NC(=O)Cc3cn(C)c4ccccc34)ccc2O[C@@H]1CN(C)C(=O)Nc1cccc2ccccc12
CCOC(=O)Cc1n[nH]c(=O)[nH]c1=O
O=C(Cc1ccccn1)NCC[C@H]1CC[C@H](NC(=O)CN2CCOCC2)[C@H](CO)O1
C[C@@H]1CN([C@H](C)CO)C(=O)c2cc(NC(=O)CCN3CCOCC3)ccc2O[C@H]1CN(C)S(=O)(=O)c1ccccc1
C[C@H]1CN([C@@H](C)CO)S(=O)(=O)c2ccc(C#CCN(C)C)cc2O[C@H]1CN(C)Cc1ccccc1F
C[C@H](CO)N1C[C@H](C)[C@@H](CN(C)S(=O)(=O)c2ccccc2)Oc2ccc(NS(C)(=O)=O)cc2CC1=O
